Results are given in words; binding and its absence hold for the method and conditions named. In cells and extracts the contact can be indirect. Some binding calls cover weakened binding; strength is not graded here. Sequences can lack the tags named with a protein.
Tests used:
[1] = target: T1, GFP-mTC48 (TC48 D182A, catalytically inactive substrate trap mutant) (UniProt P17706); experiment: condition: only cells treated with 50µM vanadate (VO4) for 4 hrs; co-IP; as a1, GFP-mTC48 immunoprecipitated from HEK293 cells expressing C3G and GFP-mTC48 that were treated with 50 µM vanadate for 4 hrs and 10 min with pervanadate before lysis
T1 sequence: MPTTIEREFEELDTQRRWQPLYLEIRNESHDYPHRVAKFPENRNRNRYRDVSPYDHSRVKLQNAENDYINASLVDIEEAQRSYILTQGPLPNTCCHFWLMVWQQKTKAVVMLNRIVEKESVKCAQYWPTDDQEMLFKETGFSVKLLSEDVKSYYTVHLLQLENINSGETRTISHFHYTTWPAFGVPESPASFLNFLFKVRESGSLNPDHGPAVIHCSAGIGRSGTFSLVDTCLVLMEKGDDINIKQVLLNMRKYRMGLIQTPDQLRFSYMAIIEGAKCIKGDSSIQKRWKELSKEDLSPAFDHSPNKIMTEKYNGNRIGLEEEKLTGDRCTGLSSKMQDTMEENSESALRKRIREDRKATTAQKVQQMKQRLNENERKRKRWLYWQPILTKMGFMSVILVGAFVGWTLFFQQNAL

[2] = target: T1, GFP-mTC48 (TC48 D182A, catalytically inactive substrate trap mutant); experiment: co-IP; GFP antibody or control mouse IgG, protein A/G plus agarose, from lysates of HEK293 cells expressing C3G and GFP-mTC48 (or GFP and C3G, or mTC48 alone); blots for C3G and GFP; in Fig. 1D cells treated 10 min with pervanadate before lysis
[3] = target: T2, GST-CBR (Crk binding region of C3G, residues 268-648, fused to GST) (UniProt Q13905); experiment: pull-down; GST or GST-CBR coupled to glutathione-agarose beads, incubated with lysates of HEK293 cells expressing GFP or GFP-TC-PTP constructs; washed beads blotted for GFP; only the target purified
T2 sequence: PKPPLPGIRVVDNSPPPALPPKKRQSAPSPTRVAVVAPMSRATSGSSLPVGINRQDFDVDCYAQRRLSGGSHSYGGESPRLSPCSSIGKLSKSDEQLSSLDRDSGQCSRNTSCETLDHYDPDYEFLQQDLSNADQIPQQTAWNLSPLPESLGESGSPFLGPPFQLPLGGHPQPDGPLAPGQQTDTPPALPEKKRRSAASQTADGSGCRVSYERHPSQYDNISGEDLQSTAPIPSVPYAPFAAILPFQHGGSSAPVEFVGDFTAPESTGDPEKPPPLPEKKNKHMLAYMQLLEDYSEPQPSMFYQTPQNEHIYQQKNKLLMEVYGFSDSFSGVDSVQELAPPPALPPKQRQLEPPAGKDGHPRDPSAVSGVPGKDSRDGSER

[4] = target: T3, C3G (RapGEF1), full length, exogenously expressed (UniProt Q13905); experiment: co-IP; C3G antibody or control IgG, from lysates of HEK293 cells expressing C3G and GFP-Src with either TC48 or mTC48; TC48 cells with or without sodium vanadate treatment; blots with the indicated antibodies
T3 sequence: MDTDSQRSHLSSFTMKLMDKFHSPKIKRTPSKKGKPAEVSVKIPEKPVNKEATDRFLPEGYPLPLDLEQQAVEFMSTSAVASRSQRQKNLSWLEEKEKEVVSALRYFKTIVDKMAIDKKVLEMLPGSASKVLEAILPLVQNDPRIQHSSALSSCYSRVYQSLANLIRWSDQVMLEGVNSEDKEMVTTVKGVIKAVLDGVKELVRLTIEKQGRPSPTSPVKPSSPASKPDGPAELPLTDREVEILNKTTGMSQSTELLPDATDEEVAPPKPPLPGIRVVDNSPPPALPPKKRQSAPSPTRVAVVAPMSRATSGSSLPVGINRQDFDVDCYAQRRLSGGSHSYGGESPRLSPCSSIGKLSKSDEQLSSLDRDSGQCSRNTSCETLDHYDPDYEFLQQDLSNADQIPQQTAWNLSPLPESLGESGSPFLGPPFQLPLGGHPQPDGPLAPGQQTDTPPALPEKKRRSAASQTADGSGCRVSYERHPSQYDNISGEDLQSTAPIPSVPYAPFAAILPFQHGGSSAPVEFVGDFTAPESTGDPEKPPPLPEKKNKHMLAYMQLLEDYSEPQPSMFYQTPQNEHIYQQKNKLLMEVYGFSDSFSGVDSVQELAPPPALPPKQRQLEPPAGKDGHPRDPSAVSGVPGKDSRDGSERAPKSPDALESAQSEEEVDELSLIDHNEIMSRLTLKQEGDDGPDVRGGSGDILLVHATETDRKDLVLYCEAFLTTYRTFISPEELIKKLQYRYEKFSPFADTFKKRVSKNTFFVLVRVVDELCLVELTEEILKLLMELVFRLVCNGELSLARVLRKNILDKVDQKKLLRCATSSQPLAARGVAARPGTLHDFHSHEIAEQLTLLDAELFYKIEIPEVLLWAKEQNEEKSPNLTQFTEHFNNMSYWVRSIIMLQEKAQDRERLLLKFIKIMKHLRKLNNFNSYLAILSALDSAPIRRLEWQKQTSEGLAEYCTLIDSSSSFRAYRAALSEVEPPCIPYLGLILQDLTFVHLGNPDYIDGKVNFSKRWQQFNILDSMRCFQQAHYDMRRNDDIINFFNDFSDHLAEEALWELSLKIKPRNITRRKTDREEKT

B1: C3G (RapGEF1), full length, exogenously expressed (protein, UniProt Q13905 1-1077)
chain: MDTDSQRSHLSSFTMKLMDKFHSPKIKRTPSKKGKPAEVSVKIPEKPVNKEATDRFLPEGYPLPLDLEQQAVEFMSTSAVASRSQRQKNLSWLEEKEKEVVSALRYFKTIVDKMAIDKKVLEMLPGSASKVLEAILPLVQNDPRIQHSSALSSCYSRVYQSLANLIRWSDQVMLEGVNSEDKEMVTTVKGVIKAVLDGVKELVRLTIEKQGRPSPTSPVKPSSPASKPDGPAELPLTDREVEILNKTTGMSQSTELLPDATDEEVAPPKPPLPGIRVVDNSPPPALPPKKRQSAPSPTRVAVVAPMSRATSGSSLPVGINRQDFDVDCYAQRRLSGGSHSYGGESPRLSPCSSIGKLSKSDEQLSSLDRDSGQCSRNTSCETLDHYDPDYEFLQQDLSNADQIPQQTAWNLSPLPESLGESGSPFLGPPFQLPLGGHPQPDGPLAPGQQTDTPPALPEKKRRSAASQTADGSGCRVSYERHPSQYDNISGEDLQSTAPIPSVPYAPFAAILPFQHGGSSAPVEFVGDFTAPESTGDPEKPPPLPEKKNKHMLAYMQLLEDYSEPQPSMFYQTPQNEHIYQQKNKLLMEVYGFSDSFSGVDSVQELAPPPALPPKQRQLEPPAGKDGHPRDPSAVSGVPGKDSRDGSERAPKSPDALESAQSEEEVDELSLIDHNEIMSRLTLKQEGDDGPDVRGGSGDILLVHATETDRKDLVLYCEAFLTTYRTFISPEELIKKLQYRYEKFSPFADTFKKRVSKNTFFVLVRVVDELCLVELTEEILKLLMELVFRLVCNGELSLARVLRKNILDKVDQKKLLRCATSSQPLAARGVAARPGTLHDFHSHEIAEQLTLLDAELFYKIEIPEVLLWAKEQNEEKSPNLTQFTEHFNNMSYWVRSIIMLQEKAQDRERLLLKFIKIMKHLRKLNNFNSYLAILSALDSAPIRRLEWQKQTSEGLAEYCTLIDSSSSFRAYRAALSEVEPPCIPYLGLILQDLTFVHLGNPDYIDGKVNFSKRWQQFNILDSMRCFQQAHYDMRRNDDIINFFNDFSDHLAEEALWELSLKIKPRNITRRKTDREEKT
binding [1]: no binding | binding [2]: binds

RKRIREDRKATTAQKVQQMKQRLNENERKRKRPRLTDT (domain or fragment, UniProt P17706-2 350-387) [GFP-TC45-C38 (C-terminal residues 350-387 of TC45)]
binding [3]: binds

B2: cellular (endogenous) C3G of HEK293 cells (protein, UniProt Q13905 1-1077)
chain: MDTDSQRSHLSSFTMKLMDKFHSPKIKRTPSKKGKPAEVSVKIPEKPVNKEATDRFLPEGYPLPLDLEQQAVEFMSTSAVASRSQRQKNLSWLEEKEKEVVSALRYFKTIVDKMAIDKKVLEMLPGSASKVLEAILPLVQNDPRIQHSSALSSCYSRVYQSLANLIRWSDQVMLEGVNSEDKEMVTTVKGVIKAVLDGVKELVRLTIEKQGRPSPTSPVKPSSPASKPDGPAELPLTDREVEILNKTTGMSQSTELLPDATDEEVAPPKPPLPGIRVVDNSPPPALPPKKRQSAPSPTRVAVVAPMSRATSGSSLPVGINRQDFDVDCYAQRRLSGGSHSYGGESPRLSPCSSIGKLSKSDEQLSSLDRDSGQCSRNTSCETLDHYDPDYEFLQQDLSNADQIPQQTAWNLSPLPESLGESGSPFLGPPFQLPLGGHPQPDGPLAPGQQTDTPPALPEKKRRSAASQTADGSGCRVSYERHPSQYDNISGEDLQSTAPIPSVPYAPFAAILPFQHGGSSAPVEFVGDFTAPESTGDPEKPPPLPEKKNKHMLAYMQLLEDYSEPQPSMFYQTPQNEHIYQQKNKLLMEVYGFSDSFSGVDSVQELAPPPALPPKQRQLEPPAGKDGHPRDPSAVSGVPGKDSRDGSERAPKSPDALESAQSEEEVDELSLIDHNEIMSRLTLKQEGDDGPDVRGGSGDILLVHATETDRKDLVLYCEAFLTTYRTFISPEELIKKLQYRYEKFSPFADTFKKRVSKNTFFVLVRVVDELCLVELTEEILKLLMELVFRLVCNGELSLARVLRKNILDKVDQKKLLRCATSSQPLAARGVAARPGTLHDFHSHEIAEQLTLLDAELFYKIEIPEVLLWAKEQNEEKSPNLTQFTEHFNNMSYWVRSIIMLQEKAQDRERLLLKFIKIMKHLRKLNNFNSYLAILSALDSAPIRRLEWQKQTSEGLAEYCTLIDSSSSFRAYRAALSEVEPPCIPYLGLILQDLTFVHLGNPDYIDGKVNFSKRWQQFNILDSMRCFQQAHYDMRRNDDIINFFNDFSDHLAEEALWELSLKIKPRNITRRKTDREEKT
binding [2]: binds

B3: GFP-TC48 (wild type TC-PTP isoform TC48) (enzyme, UniProt P17706-1 1-415)
chain: MPTTIEREFEELDTQRRWQPLYLEIRNESHDYPHRVAKFPENRNRNRYRDVSPYDHSRVKLQNAENDYINASLVDIEEAQRSYILTQGPLPNTCCHFWLMVWQQKTKAVVMLNRIVEKESVKCAQYWPTDDQEMLFKETGFSVKLLSEDVKSYYTVHLLQLENINSGETRTISHFHYTTWPDFGVPESPASFLNFLFKVRESGSLNPDHGPAVIHCSAGIGRSGTFSLVDTCLVLMEKGDDINIKQVLLNMRKYRMGLIQTPDQLRFSYMAIIEGAKCIKGDSSIQKRWKELSKEDLSPAFDHSPNKIMTEKYNGNRIGLEEEKLTGDRCTGLSSKMQDTMEENSESALRKRIREDRKATTAQKVQQMKQRLNENERKRKRWLYWQPILTKMGFMSVILVGAFVGWTLFFQQNAL
binding [3]: binds | binding [4]: binds

B4: GFP-mTC48 (TC48 D182A, catalytically inactive substrate trap mutant) (enzyme, UniProt P17706-1 1-415)
chain: MPTTIEREFEELDTQRRWQPLYLEIRNESHDYPHRVAKFPENRNRNRYRDVSPYDHSRVKLQNAENDYINASLVDIEEAQRSYILTQGPLPNTCCHFWLMVWQQKTKAVVMLNRIVEKESVKCAQYWPTDDQEMLFKETGFSVKLLSEDVKSYYTVHLLQLENINSGETRTISHFHYTTWPAFGVPESPASFLNFLFKVRESGSLNPDHGPAVIHCSAGIGRSGTFSLVDTCLVLMEKGDDINIKQVLLNMRKYRMGLIQTPDQLRFSYMAIIEGAKCIKGDSSIQKRWKELSKEDLSPAFDHSPNKIMTEKYNGNRIGLEEEKLTGDRCTGLSSKMQDTMEENSESALRKRIREDRKATTAQKVQQMKQRLNENERKRKRWLYWQPILTKMGFMSVILVGAFVGWTLFFQQNAL
binding [4]: binds

B5: GFP-TC45 (TC-PTP isoform TC45) (enzyme, UniProt P17706-2 1-387)
chain: MPTTIEREFEELDTQRRWQPLYLEIRNESHDYPHRVAKFPENRNRNRYRDVSPYDHSRVKLQNAENDYINASLVDIEEAQRSYILTQGPLPNTCCHFWLMVWQQKTKAVVMLNRIVEKESVKCAQYWPTDDQEMLFKETGFSVKLLSEDVKSYYTVHLLQLENINSGETRTISHFHYTTWPDFGVPESPASFLNFLFKVRESGSLNPDHGPAVIHCSAGIGRSGTFSLVDTCLVLMEKGDDINIKQVLLNMRKYRMGLIQTPDQLRFSYMAIIEGAKCIKGDSSIQKRWKELSKEDLSPAFDHSPNKIMTEKYNGNRIGLEEEKLTGDRCTGLSSKMQDTMEENSESALRKRIREDRKATTAQKVQQMKQRLNENERKRKRPRLTDT
binding [3]: binds

B6: GFP-TC48-C-66 (C-terminal residues 350-416 of TC48) (domain or fragment, UniProt P17706-1 350-415)
chain: RKRIREDRKATTAQKVQQMKQRLNENERKRKRWLYWQPILTKMGFMSVILVGAFVGWTLFFQQNAL
binding [3]: binds
